Reference: article PMC4864424
Results are given in words; binding and its absence hold for the method and conditions named. For part of these data: In cells and extracts the contact can be indirect. Some entries that bind do so weakly or less than the wild type. Each block holds one substance with its values, some of them ahead of it.

Sequences of proteins named here, by UniProt entry; tags and fusion partners are left off. A change or cut given only in a name is not applied to a line headed by its entry. Residues count along the entry.
UniProt P35579: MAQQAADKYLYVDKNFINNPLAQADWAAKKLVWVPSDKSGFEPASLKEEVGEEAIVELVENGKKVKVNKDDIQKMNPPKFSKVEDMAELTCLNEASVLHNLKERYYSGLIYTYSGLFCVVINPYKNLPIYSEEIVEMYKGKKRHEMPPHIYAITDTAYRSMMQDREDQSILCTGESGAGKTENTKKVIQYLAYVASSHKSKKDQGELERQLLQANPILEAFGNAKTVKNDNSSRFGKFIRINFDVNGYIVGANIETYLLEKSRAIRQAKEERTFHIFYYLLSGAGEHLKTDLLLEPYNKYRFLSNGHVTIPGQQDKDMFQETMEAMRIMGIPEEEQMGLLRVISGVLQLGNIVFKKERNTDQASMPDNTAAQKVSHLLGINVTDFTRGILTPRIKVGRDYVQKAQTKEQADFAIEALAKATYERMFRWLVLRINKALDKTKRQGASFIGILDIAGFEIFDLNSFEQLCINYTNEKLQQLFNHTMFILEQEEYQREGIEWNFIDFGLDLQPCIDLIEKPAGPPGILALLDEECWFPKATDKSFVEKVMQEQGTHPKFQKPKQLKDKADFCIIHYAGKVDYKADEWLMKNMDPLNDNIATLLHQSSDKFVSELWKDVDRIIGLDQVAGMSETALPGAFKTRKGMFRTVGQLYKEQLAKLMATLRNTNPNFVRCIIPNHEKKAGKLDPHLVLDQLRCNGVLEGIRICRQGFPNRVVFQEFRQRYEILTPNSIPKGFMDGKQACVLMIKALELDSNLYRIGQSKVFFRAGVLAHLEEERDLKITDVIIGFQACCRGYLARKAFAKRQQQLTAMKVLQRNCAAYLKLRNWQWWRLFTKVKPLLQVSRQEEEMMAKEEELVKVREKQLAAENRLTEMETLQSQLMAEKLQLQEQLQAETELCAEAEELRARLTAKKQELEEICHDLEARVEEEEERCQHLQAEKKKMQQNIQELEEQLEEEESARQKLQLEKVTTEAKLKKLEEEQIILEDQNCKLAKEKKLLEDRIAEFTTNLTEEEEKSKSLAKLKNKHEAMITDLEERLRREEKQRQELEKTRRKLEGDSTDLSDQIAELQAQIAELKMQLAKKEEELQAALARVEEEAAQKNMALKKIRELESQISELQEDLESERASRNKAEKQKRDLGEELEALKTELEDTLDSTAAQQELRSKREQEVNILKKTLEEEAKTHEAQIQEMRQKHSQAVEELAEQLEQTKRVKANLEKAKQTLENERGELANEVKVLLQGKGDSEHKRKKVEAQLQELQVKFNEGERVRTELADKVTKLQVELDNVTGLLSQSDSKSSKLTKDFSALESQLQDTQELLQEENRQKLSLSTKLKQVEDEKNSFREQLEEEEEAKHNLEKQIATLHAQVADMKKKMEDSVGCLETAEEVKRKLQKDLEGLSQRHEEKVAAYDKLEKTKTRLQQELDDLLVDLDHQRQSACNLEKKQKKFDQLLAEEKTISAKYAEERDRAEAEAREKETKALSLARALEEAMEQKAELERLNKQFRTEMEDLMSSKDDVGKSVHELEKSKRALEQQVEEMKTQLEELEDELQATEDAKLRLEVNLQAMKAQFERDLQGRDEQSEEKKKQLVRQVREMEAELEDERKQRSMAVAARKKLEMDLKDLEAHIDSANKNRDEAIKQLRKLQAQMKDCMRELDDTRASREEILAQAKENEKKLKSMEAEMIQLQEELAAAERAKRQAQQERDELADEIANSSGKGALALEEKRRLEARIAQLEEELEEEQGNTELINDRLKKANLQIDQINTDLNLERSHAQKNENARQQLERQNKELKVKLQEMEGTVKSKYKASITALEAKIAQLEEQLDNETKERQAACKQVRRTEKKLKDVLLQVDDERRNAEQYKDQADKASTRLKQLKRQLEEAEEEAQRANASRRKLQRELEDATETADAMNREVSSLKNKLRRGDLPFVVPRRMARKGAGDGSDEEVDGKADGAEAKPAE
UniProt Q96QP1: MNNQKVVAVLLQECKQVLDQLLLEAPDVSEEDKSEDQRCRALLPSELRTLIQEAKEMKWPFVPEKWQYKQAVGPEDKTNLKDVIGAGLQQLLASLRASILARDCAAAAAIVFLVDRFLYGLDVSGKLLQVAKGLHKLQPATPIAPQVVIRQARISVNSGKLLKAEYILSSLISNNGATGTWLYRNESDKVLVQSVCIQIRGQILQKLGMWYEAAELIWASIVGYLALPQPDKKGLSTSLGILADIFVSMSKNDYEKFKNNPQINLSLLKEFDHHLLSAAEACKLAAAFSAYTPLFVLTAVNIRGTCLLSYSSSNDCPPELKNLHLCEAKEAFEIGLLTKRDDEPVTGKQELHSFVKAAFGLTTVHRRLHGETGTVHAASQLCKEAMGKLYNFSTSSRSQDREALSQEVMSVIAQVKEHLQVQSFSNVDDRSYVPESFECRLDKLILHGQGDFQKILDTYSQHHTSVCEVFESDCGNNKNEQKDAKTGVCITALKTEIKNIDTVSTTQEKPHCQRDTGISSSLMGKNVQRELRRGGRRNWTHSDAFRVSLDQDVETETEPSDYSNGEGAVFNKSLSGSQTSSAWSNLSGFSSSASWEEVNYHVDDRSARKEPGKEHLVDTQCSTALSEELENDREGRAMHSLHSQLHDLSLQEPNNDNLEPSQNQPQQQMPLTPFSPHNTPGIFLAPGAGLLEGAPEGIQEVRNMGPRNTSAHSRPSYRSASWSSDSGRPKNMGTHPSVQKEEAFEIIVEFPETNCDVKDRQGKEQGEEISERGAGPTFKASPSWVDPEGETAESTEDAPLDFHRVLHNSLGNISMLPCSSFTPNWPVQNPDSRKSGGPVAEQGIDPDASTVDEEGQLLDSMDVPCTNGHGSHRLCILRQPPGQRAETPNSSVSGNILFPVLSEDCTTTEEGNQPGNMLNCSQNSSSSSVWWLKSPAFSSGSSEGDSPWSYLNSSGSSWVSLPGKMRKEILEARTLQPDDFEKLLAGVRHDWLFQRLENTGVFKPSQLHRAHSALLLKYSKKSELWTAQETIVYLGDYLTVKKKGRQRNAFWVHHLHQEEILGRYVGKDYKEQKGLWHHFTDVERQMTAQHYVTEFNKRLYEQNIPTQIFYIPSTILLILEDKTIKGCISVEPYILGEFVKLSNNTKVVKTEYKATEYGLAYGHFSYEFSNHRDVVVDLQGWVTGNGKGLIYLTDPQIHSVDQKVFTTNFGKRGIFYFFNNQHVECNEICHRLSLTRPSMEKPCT
Halo-ALPK1 N-terminal (Nt) recombinant protein: residues 1-569 of Q96QP1
HA-ALPK1 Nt1 (1-271 a.a.): residues 1-271 of Q96QP1
HA-ALPK1 middle region (mid, 432-961 a.a.): residues 432-961 of Q96QP1

Key:
[1] = biological target: Flag-tagged myosin IIA (MYH9, 1-1960 a.a.) (UniProt P35579); experiment: co-IP; HEK293T cotransfected with HA-tagged ALPK1 forms and Flag-myosin IIA; precipitated with Flag antibody (M2), Protein G beads; blots with anti-HA, anti-F-actin, anti-calmodulin
[2] = biological target: HA-ALPK1 full-length (FL, 1-1244 a.a.) (human) (UniProt Q96QP1); experiment: co-IP; HEK293T cotransfected with HA-tagged ALPK1 forms and Flag-myosin IIA; precipitated with HA antibody (12CA5), Protein G beads; blots with anti-Flag, anti-F-actin, anti-calmodulin
[3] = biological target: HA-ALPK1 Nt1 (1-271 a.a.) (human) (UniProt Q96QP1); experiment: as above
[4] = biological target: HA-ALPK1 middle region (mid, 432-961 a.a.) (human) (UniProt Q96QP1); experiment: as above
[5] = biological target: Halo-ALPK1 N-terminal (Nt) recombinant protein (human) (UniProt Q96QP1); experiment: pull-down; Halo-ALPK1 FL and Nt on HaloLink resin with THP-1 cell lysates; bands on SDS-PAGE identified by LC/MS/MS and confirmed by Western blotting; only the target purified
[6] = biological target: Halo-ALPK1 full-length (FL) recombinant protein (human) (UniProt Q96QP1); experiment: as above
[7] = biological target: Halo-ALPK1 full-length (FL) recombinant protein (human) (UniProt Q96QP1); experiment: co-purification (Halo-tag purification); ALPK1 recombinant protein purified from HEK 293F cells by the Halo-tag system; endogenous myosin IIA co-eluted, seen as a weak band in the kinase assay gel

binding [1]: binds
Substance: HA-ALPK1 Nt1 (1-271 a.a.) (from UniProt Q96QP1-1 1-271) (domain or fragment)

binding [1]: no binding
Substance: HA-ALPK1 middle region (mid, 432-961 a.a.) (from UniProt Q96QP1-1 432-961) (domain or fragment)

binding [2]: binds
binding [3]: binds
binding [4]: no binding
Substance: Flag-tagged myosin IIA (MYH9, 1-1960 a.a.) (from UniProt P35579 1-1960)

binding [5]: binds
binding [6]: binds
binding [7]: binds
Substance: Myosin-9 (endogenous myosin IIA) (from UniProt P35579 1-1960)

binding [1]: binds
Substance: HA-ALPK1 full-length (FL, 1-1244 a.a.) (from UniProt Q96QP1-1 1-1244) (enzyme)
